Assay results as given in patent publication US20070224633A1 (Pieris, published 2007).

T1: CD25-Fc (recombinant human IL-2 R alpha/Fc Chimera, R&D systems) (human, UniProt P01589 22-240)
T1 construct: extracellular domain; Bought chimera, held on the plate by the capture mAb; also called captured CD25-Fc; Fc part of the bought chimera not given; not described
T1 sequence (looked up): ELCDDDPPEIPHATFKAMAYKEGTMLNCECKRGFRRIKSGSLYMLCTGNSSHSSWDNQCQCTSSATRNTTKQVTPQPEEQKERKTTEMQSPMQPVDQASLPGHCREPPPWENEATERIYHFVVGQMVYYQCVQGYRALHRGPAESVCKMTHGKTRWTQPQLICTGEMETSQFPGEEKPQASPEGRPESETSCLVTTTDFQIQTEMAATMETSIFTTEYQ

T2: human CD154 on CHO-K1 cells transfected with CD154-pcDNA3.1Zeo(+) (human, UniProt P29965 1-261)
T2 construct: also called CHO-CD154; CHO cell line expressing human CD154
T2 sequence: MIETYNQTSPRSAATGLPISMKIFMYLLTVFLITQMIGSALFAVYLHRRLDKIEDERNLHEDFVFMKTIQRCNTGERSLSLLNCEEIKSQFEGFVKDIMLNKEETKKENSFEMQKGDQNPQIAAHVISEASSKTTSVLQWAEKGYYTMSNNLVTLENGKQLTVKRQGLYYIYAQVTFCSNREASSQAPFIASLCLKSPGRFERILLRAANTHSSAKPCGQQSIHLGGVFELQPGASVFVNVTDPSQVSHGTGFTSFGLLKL

T3: Recombinant human vascular endothelial growth factor (165 aminoacids, rhuVEGF165) produced in insect cells … (human, UniProt P15692 27-191)
T3 construct: mature; Bought protein; also called rhuVEGF165 (insect cells)
T3 sequence (looked up): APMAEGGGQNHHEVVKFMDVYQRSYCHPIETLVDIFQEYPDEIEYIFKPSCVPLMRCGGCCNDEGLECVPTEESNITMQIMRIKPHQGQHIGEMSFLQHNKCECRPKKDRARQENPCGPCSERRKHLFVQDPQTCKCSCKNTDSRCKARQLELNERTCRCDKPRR


Assays:
[1] = target: T4, human serum albumin (HSA, Sigma) (human, UniProt P02768 25-609); experiment: ELISA, control coated, mutein dilution series
T4 construct: Control protein; also called HAS; human serum albumine

[2] = target: T1, CD25-Fc (recombinant human IL-2 R …); experiment: ELISA, CD25-Fc (5 µg/ml) captured via capture mAb, mutein dilution series, Streptactin-HRP detection; apparent KD from curve fit
Procedure: (§1) For this purpose, the wells of a black Fluotrac 600 microtiter plate (Greiner; 384 well) were coated with the capture mAb (Mouse Anti-Human IgG, Fcgamma Fragment Specific; Jackson ImmunoResearch) at a concentration of 5 μg/ml for 1 h at RT or OIN at 4° C. After a washing step and a subsequent blocking step with 3% w/v milk powder in PBST, CD25-Fc at a concentration of 5 μg/ml was added and incubated for one hour at RT. In parallel, the unrelated proteins capture mAb, HSA and FCS (Fetal Calf Serum; Invitrogen) were coated at concentrations of 5 μg/ml, 10 μl/ml and 10 μg/ml, respectively. In addition, human IgG Fc fragment (Accurate Chemical) was captured at a concentration of 5 μg/ml via the capture mAb coated at 5 μg/ml.
(§2) After another washing step, a dilution series of the mutein S67.7 C6 in PBST covering an appropriate concentration range was added to the captured CD25-Fc and the control proteins capture mAb, HSA, FCS and captured human IgG Fc fragment and incubated for 1 h at RT. Bound mutein was subsequently detected via Streptactin-HRP conjugate (MBA) and the fluorogenic HRP-substrate QuantaBlu™ (PIERCE) according to the respective manufacturers' recommendations. After an appropriate incubation time at room temperature, fluorescence was excited at a wavelength of 320 nm (±12.5 nm) and measured at 430 nm (±17.5 nm) in a GENiosPlus plate reader. […]

[3] = target: T1, CD25-Fc (recombinant human IL-2 R …); experiment: ELISA, CD25-Fc (2.5 µg/ml) captured via capture mAb, mutein dilution series, Streptactin-HRP detection; apparent KD from curve fit
Procedure: as §1, §2

[4] = target: T2, human CD154 on CHO-K1 cells transfected …; experiment: flow cytometry on CHO cells expressing human CD154, fluorescein-labelled monomeric mutein
Procedure: The mutein F92.8 M1.2 E15 was tested for specific binding to a CHO cell line expressing human CD25 in a flow cytometry assay. For this purpose, the CD25-pcDNA3.1 Zeo(+)- or CD154-pcDNA3.1Zeo(+)-transfected CHO cells described in Examples 15 and 22, respectively were detached from culture flasks with 0.2% w/v EDTA. Approximately 200,000 cells were resuspended in 30 μl PBS/2% v/v FCS and incubated with 2.5 μg of monomeric F92.8 M1.2 E15 fraction obtained as described in Example 20 and labeled at a twofold molar ratio with fluorescein (Fluorescein-5(6)-carboxamido caproic acid N-succinimidyl ester; Fluka) based on the protocol described in Schlehuber and Skerra (supra). As a negative control, 2.5 μg of the recombinant wild type TLPC encoded by pTLPC8 and labeled with fluorescein at a twofold molar ratio was employed. CD25 expression was confirmed with FITC-labeled anti-CD25 mAb (Acris, DM519F), using FITC-labeled IgG1 (Acris, SM10F) as isotype control. After 30 min incubation on ice, cells were washed twice with PBS/2% v/v FCS prior to analysis by flow cytometry using a FACSCalibur (Becton Dickinson).

[5] = target: T3, Recombinant human vascular endothelial …; experiment: ELISA, rhuVEGF165 coated at 1 µg/ml, mutein dilution series, anti-T7 mAb-HRP detection; apparent KD from curve fit
Procedure: (§3) The affinity of the TLPC muteins for VEGF was measured as follows. In brief, a dilution series of the mutein S69.4 O13 obtained as described in Example 5 was tested in an ELISA assay for binding to rhuVEGF165 and the control protein BSA.
For this purpose, the wells of a black Fluotrac 600 microtiter plate (Greiner; 384 well) were coated with 1 μg/ml rhuVEGF165 (insect cells) and 10 μg/ml BSA (Roth) 0/N at 4° C. and blocked with 2% w/v BSA in PBST/0.1. […] Bound mutein was subsequently detected via anti-17 monoclonal antibody-HRP-conjugate and the fluorogenic HRP-substrate QuantaBlu™ as described above. After an appropriate incubation time at room temperature, fluorescence was excited at a wavelength of 320 nm (±12.5 nm) and measured at 430 nm (±17.5 nm) in a GENiosPlus plate reader.
The curve was fitted by non-linear least squares regression with the help of the computer program Kaleidagraph (Synergy software) according to the equation [P·L]=([P]ₜ[L]ₜ)/(KD+[P]ₜ). Thereby [P]ₜ is the total concentration of immobilized target (in relative fluorescence units), [L]ₜ is the concentration of the applied TLPC mutein, respectively, [P·L] is the concentration of the formed complex (in relative fluorescence units, rFU), and KD is the apparent dissociation constant.

[6] = target: T5, bovine serum albumin (BSA; Roth) (bovine, UniProt P02769 25-607); experiment: ELISA, BSA coated at 10 µg/ml, mutein dilution series
T5 construct: Control protein
Procedure: as §3
For this purpose, the wells of a black Fluotrac 600 microtiter plate (Greiner; 384 well) were coated with 1 μg/ml rhuVEGF165 (insect cells) and 10 μg/ml BSA (Roth) 0/N at 4° C. and blocked with 2% w/v BSA in PBST/0.1. After a washing step, a subsequent blocking step with 3% w/v milk powder in PBST and another washing step, a dilution series of the mutein S69.4 O13 in PBST covering an appropriate concentration range was incubated for 1 h at RT in the coated and blocked wells. Bound mutein was subsequently detected via anti-17 monoclonal antibody-HRP-conjugate and the fluorogenic HRP-substrate QuantaBlu™ as described above. After an appropriate incubation time at room temperature, fluorescence was excited at a wavelength of 320 nm (±12.5 nm) and measured at 430 nm (±17.5 nm) in a GENiosPlus plate reader.

[7] = target: T4, human serum albumin (HSA, Sigma); experiment: ELISA, HSA coated at 10 µg/ml, mutein dilution series
Procedure: (§4) For this purpose, the wells of black Fluotrac 600 ELISA plates (Greiner; 384 well) were coated with 20 μl of hCD22 (5 μg/ml, Peprotech) or control proteins hCD33-Fc (1 μg/ml, R&D Research), HSA (10 μg/ml, Sigma), hIgG1 (10 μg/ml, Jackson ImmunoResearch) O/N at 4° C.
(§5) After another washing step, a dilution series of the mutein S76.1H10, obtained in Example 9, in PBST covering an appropriate concentration rage was added to the coated hCD22 and the control proteins hCD33-Fc, HSA and hIgG1 and incubated for 1 h at RT. Bound mutein was subsequently detected via Streptactin-HRP conjugate (IBA) and the fluorogenic HRP-substrate QuantaBlu™ (PIERCE) according to the respective manufacturers' recommendations. After an appropriate incubation time at room temperature, fluorescence was excited at a wavelength of 320 nm (±12.5 nm) and measured at 430 nm (±17.5 nm) in a GENiosPlus plate reader.

hCD33-Fc (R&D) = target: T6, hCD33-Fc (R&D) (human, UniProt P20138 18-259); experiment: ELISA, hCD33-Fc coated at 1 µg/ml, mutein dilution series
T6 construct: extracellular domain; Bought from R&D (printed as R&D Research and as R&D Systems); not shown: Fc part of the bought fusion protein; not described
Procedure: as §4, §5

T4 sequence (P02768 25-609 limits assumed): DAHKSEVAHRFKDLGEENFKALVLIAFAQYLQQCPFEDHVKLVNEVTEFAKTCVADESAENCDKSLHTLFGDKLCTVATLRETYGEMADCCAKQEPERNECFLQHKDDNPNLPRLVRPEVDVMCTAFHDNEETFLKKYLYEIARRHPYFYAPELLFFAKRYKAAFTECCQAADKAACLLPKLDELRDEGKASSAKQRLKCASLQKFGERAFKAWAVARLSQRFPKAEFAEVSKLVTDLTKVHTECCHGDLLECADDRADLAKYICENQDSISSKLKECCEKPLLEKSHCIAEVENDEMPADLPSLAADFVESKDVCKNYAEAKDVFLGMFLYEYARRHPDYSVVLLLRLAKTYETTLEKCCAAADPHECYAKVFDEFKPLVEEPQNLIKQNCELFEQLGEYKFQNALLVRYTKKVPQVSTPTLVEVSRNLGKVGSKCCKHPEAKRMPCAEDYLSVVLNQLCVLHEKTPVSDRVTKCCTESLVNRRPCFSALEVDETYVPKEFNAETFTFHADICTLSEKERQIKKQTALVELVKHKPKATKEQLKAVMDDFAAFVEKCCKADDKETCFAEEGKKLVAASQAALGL
hCD33-Fc (R&D), sequence (P20138 18-259): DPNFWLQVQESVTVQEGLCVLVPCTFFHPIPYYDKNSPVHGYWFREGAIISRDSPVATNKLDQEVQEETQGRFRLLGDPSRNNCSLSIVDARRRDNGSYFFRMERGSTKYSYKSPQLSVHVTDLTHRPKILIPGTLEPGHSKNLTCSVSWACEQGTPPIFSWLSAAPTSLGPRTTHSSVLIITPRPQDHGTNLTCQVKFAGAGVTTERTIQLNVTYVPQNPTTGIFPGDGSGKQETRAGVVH
UniProt P02769, sequence (P02769 25-607 limits assumed): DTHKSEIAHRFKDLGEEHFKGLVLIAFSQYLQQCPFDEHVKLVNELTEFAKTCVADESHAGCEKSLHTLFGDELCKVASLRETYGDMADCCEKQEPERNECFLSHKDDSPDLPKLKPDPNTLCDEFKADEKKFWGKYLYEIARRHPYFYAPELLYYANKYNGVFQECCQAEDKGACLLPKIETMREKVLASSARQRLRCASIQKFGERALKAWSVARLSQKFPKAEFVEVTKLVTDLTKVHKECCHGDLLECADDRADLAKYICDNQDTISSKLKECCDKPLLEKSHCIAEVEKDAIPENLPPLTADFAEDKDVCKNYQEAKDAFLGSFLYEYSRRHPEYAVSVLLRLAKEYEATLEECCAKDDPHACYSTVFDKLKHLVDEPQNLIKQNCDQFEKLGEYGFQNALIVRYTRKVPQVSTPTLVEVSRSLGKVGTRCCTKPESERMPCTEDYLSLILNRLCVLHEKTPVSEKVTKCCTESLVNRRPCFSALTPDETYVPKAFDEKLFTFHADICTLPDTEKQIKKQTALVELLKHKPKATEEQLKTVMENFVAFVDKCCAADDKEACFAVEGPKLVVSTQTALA

Binder	binding result [1]	binding result [7]	binding result (hCD33-Fc (R&D))	also measured
TLPC mutein S67.7 C6 (designed binder, Made from pTLPC8, with C-terminal T7 tag and Strep-tag II; monomeric fractions were used; For flow cytometry it was labelled with fluorescein at an equimolar ratio; also called S67.7-C06) DGGVGRRGLSGTWYLKAMTVDREFPEMNLESVTPMTLTGLAGGDLEAKVTMLISGRCQEVKAVLEGTNELDKYTADGGKHVAYIIHSHVTDHLIFYSEGQLHGKPVRGVKLVGRDPKNNLEALEDFEKAAGARGLSTESILIPRQSETCSPGDASMTGGQQMGSAWSHPQFEK	no binding	–	–	Kd [2]: 1180 nM
TLPC mutein F92.8 M1.2 E15, monomeric fraction (designed binder, For flow cytometry the protein was labelled with fluorescein (NHS ester, twofold molar ratio). It was unlabelled in the ELISA., Made from pTLPC9 in E. coli W3110, with Strep-tag II; For flow cytometry the monomeric fraction was labelled with fluorescein at a twofold molar ratio; also called F92.8 M1.2 E1S) DGGVGRRGLSGTWYLKAMAVDREFPEMNLESVTPMTLTGLAGGDLGVKVTMLISGRCQEVKAVLEGTNELDKYTADGGKHVAYIIHSHVTDHLILYSEGQLHGKPVRGVKLVGRDPKNNLEALEDFEKAAGARGLSTESILIPRQSETCSPGSAWSHPQFEK	no binding	–	–	Kd [3]: 131 nM; binding result [4]: no binding (tested: 2.5 µg in 30 µl)
TLPC mutein S69.4 O13 (designed binder, Mutein of human tear lipocalin (closed-end library); Made from pTLPC8 in E. coli, so it carries a C-terminal T7 detection tag followed by Strep-tag II; Monomeric gel filtration fractions were used; also called S69.4 013; VEGF S69.4-O13) DGGGIRRSMSGTWYLKAMTVDREFPEMNLESVTPMTLTLLKGHNLEAKVTMLISGRCQEVKAVLGRTKERKKYTADGGKHVAYIIPSAVRDHVIFYSEGQLHGKPVRGVKLVGRDPKNNLEALEDFEKAAGARGLSTESILIPRQSETCSPGDASMTGGQQMGSAWSHPQFEK	–	–	–	Kd [5]: 109 nM; binding result [6]: no binding
TLPC mutein S76.1 H10 Monomer (designed binder, Made from pTLPC8, with T7-tag and Strep-tag II at the C-terminus; This is the monomeric peak of the size exclusion chromatography; also called CD22 S76.1 H10 Monomer) DGGRWRVCWSGTWYLKAMTVDREFPEMNLESVTPMTLTQLDGKNLEAKVTMLISGRCQEVKAVLELTNEGVKYTADGGKHVAYIIPSRVSDHFIFYSEGQLHGKPVRGVKLVGRDPKNNLEALEDFEKAAGARGLSTESILIPRQSETCSPGDASMTGGQQMGSAWSHPQFEK	–	no binding	no binding	–
TLPC mutein S76.1 H10 Dimer (designed binder, Same polypeptide as the monomer; this is the dimeric peak of the size exclusion chromatography; C-terminal T7-tag and Strep-tag II (pTLPC8); also called CD22 S76.1 H10 Dimer) DGGRWRVCWSGTWYLKAMTVDREFPEMNLESVTPMTLTQLDGKNLEAKVTMLISGRCQEVKAVLELTNEGVKYTADGGKHVAYIIPSRVSDHFIFYSEGQLHGKPVRGVKLVGRDPKNNLEALEDFEKAAGARGLSTESILIPRQSETCSPGDASMTGGQQMGSAWSHPQFEK	–	no binding	no binding	–
